Consider one compound from PubChem BioAssay (NCI).

The experiment relates to NCI-H322M lung. The experiment can be described thus: NCI tumour cell line growth inhibition, 48 h.

SMILES strings stand for the structures.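 Tested at 5 concentrations; 48 h exposure; 96-well plates; endpoints linearly interpolated, else capped at highest concentration. Abbreviation: GI50, concentration required for 50% inhibition of growth. The concentration for full growth arrest is given as TGI.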

For the compound `CCC(=C(c1ccc(OCCN2CCCCCC2)cc1)c1ccc(OCCN2CCCCCC2)cc1)c1ccc(Cl)cc1`, the GI50 was 4.32 µM and the TGI is 8.81 µM.
